# Measurements as given in the supplement of paper PMC8728848.
# The list shows a part of the results.
# Assays:
# Assay in all cases: glycan array binding signal (z-score within array); higher = stronger binding
# Settings in all cases: glycan notation: IUPAC condensed, linker removed
# [1] = target: Fuc(a1-2)Gal
# How it was run: (§1)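 The Consortium for Functional Glycomics database supplied 3228 glycan arrays, of which those lacking an available protein sequence were dropped. The binding signal, a within-array Z-score, was averaged across arrays of the same protein sequence and across linkers. Negative scores can be read as non-binding.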
# [2] = target: Fuc(a1-2)Gal(b1-3)GalNAc
# How it was run: as §1
# [3] = target: Fuc(a1-2)Gal(b1-3)GalNAc(a1-3)[Fuc(a1-2)]Gal(b1-4)Glc
# How it was run: as §1
# [4] = target: Fuc(a1-2)Gal(b1-3)GalNAc(a1-3)[Fuc(a1-2)]Gal(b1-4)GlcNAc
# How it was run: as §1
# [5] = target: Fuc(a1-2)Gal(b1-3)GalNAc(b1-3)Gal
# How it was run: as §1
# [6] = target: Fuc(a1-2)Gal(b1-3)GalNAc(b1-3)Gal(a1-4)Gal(b1-4)Glc
# How it was run: as §1
# [7] = target: Fuc(a1-2)Gal(b1-3)GalNAc(b1-4)[Neu5Ac(a2-3)]Gal(b1-4)Glc
# How it was run: as §1
# [8] = target: Fuc(a1-2)Gal(b1-3)GlcNAc
# How it was run: as §1
# [9] = target: Fuc(a1-2)Gal(b1-3)GlcNAc(b1-2)Man(a1-3)[Fuc(a1-2)Gal(b1-3)GlcNAc(b1-2)Man(a1-6)]Man(b1-4)GlcNAc(b1-4)GlcNAc
# How it was run: as §1
# [10] = target: Fuc(a1-2)Gal(b1-3)GlcNAc(b1-2)Man(a1-3)[Fuc(a1-2)Gal(b1-3)GlcNAc(b1-2)Man(a1-6)]Man(b1-4)GlcNAc(b1-4)[Fuc(a1-6)]GlcNAc
# How it was run: as §1
# [11] = target: Fuc(a1-2)Gal(b1-3)GlcNAc(b1-3)Gal(b1-4)Glc
# How it was run: as §1
# [12] = target: Fuc(a1-2)Gal(b1-3)GlcNAc(b1-3)GalNAc
# How it was run: as §1
# [13] = target: Fuc(a1-2)Gal(b1-3)GlcNAc(b1-3)[Fuc(a1-2)Gal(b1-3)GlcNAc(b1-6)]GalNAc
# How it was run: as §1
# [14] = target: Fuc(a1-2)Gal(b1-3)GlcNAc(b1-3)[Fuc(a1-3)[Gal(b1-4)]GlcNAc(b1-6)]Gal(b1-4)Glc
# How it was run: as §1
# [15] = target: Fuc(a1-2)Gal(b1-3)GlcNAc(b1-3)[Gal(b1-4)GlcNAc(b1-6)]Gal(b1-4)Glc
# How it was run: as §1
# [16] = target: Fuc(a1-2)Gal(b1-3)GlcNAc(b1-3)[Neu5Ac(a2-6)Gal(b1-4)GlcNAc(b1-6)]Gal(b1-4)Glc
# How it was run: as §1
# [17] = target: Fuc(a1-2)Gal(b1-3)GlcNAc6S
# How it was run: as §1
# [18] = target: Fuc(a1-2)Gal(b1-3)[Fuc(a1-4)]GlcNAc
# How it was run: as §1
# [19] = target: Fuc(a1-2)Gal(b1-3)[Fuc(a1-4)]GlcNAc(b1-2)Man(a1-3)[Fuc(a1-2)Gal(b1-3)[Fuc(a1-4)]GlcNAc(b1-2)Man(a1-6)]Man(b1-4)GlcNAc(b1-4)GlcNAc
# How it was run: as §1
# [20] = target: Fuc(a1-2)Gal(b1-3)[Fuc(a1-4)]GlcNAc(b1-2)Man(a1-6)[Fuc(a1-2)Gal(b1-3)[Fuc(a1-4)]GlcNAc(b1-2)Man(a1-3)]Man(b1-4)GlcNAc(b1-4)[Fuc(a1-6)]GlcNAc
# How it was run: as §1
# [21] = target: Fuc(a1-2)Gal(b1-3)[Fuc(a1-4)]GlcNAc(b1-3)[Fuc(a1-3)[Gal(b1-4)]GlcNAc(b1-6)]Gal(b1-4)Glc
# How it was run: as §1
# [22] = target: Fuc(a1-2)Gal(b1-3)[Fuc(a1-4)]GlcNAc(b1-3)[Gal(b1-4)GlcNAc(b1-6)]Gal(b1-4)Glc
# How it was run: as §1
# [23] = target: Fuc(a1-2)Gal(b1-4)Glc
# How it was run: as §1
# [24] = target: Fuc(a1-2)Gal(b1-4)Glc6S
# How it was run: as §1
# [25] = target: Fuc(a1-2)Gal(b1-4)GlcNAc
# How it was run: as §1
# [26] = target: Fuc(a1-2)Gal(b1-4)GlcNAc(b1-2)Man
# How it was run: as §1
# [27] = target: Fuc(a1-2)Gal(b1-4)GlcNAc(b1-2)Man(a1-3)[Fuc(a1-2)Gal(b1-4)GlcNAc(b1-2)Man(a1-6)]Man(b1-4)GlcNAc(b1-4)GlcNAc
# How it was run: as §1
# [28] = target: Fuc(a1-2)Gal(b1-4)GlcNAc(b1-2)Man(a1-3)[Fuc(a1-2)Gal(b1-4)GlcNAc(b1-2)Man(a1-6)]Man(b1-4)GlcNAc(b1-4)[Fuc(a1-6)]GlcNAc
# How it was run: as §1
# [29] = target: Fuc(a1-2)Gal(b1-4)GlcNAc(b1-2)[Fuc(a1-2)Gal(b1-4)GlcNAc(b1-4)]Man(a1-3)[Fuc(a1-2)Gal(b1-4)GlcNAc(b1-2)Man(a1-6)]Man(b1-4)GlcNAc(b1-4)GlcNAc
# How it was run: as §1
# [30] = target: Fuc(a1-2)Gal(b1-4)GlcNAc(b1-3)Gal(b1-4)GlcNAc
# How it was run: as §1
binder,measurement,setting,value
"Strep tagII-anxA1 (Homo sapiens), P04083 (protein) MAMVSEFLKQAWFIENEEQEYVQTVKSSKGGPGSAVSPYPTFNPSSDVAALHKAIMVKGVDEATIIDILTKRNNAQRQQIKAAYLQETGKPLDETLKKALTGHLEEVVLALLKTPAQFDADELRAAMKGLGTDEDTLIEILASRTNKEIRDINRVYREELKRDLAKDITSDTSGDFRNALLSLAKGDRSEDFGVNEDLADSDARALYEAGERRKGTDVNVFNTILTTRSYPQLRRVFQKYTKYSKHDMNKVLDLELKGDIEKCLTAIVKCATSKPAFFAEKLHQAMKGVGTRHKALIRIMVSRSEIDMNDIKAFYQKMYGISLCQAILDETKGDYEKILVALCGGN",glycan array binding signal (z-score),[1],-0.378
same,glycan array binding signal (z-score),[2],0.017
same,glycan array binding signal (z-score),[3],-0.705
same,glycan array binding signal (z-score),[4],-0.617
same,glycan array binding signal (z-score),[5],-0.541
same,glycan array binding signal (z-score),[6],-0.384
same,glycan array binding signal (z-score),[7],-0.694
same,glycan array binding signal (z-score),[8],-0.573
same,glycan array binding signal (z-score),[9],1.89
same,glycan array binding signal (z-score),[10],0.314
same,glycan array binding signal (z-score),[11],-0.573
same,glycan array binding signal (z-score),[12],-0.698
same,glycan array binding signal (z-score),[13],0.189
same,glycan array binding signal (z-score),[14],-0.635
same,glycan array binding signal (z-score),[15],-0.733
same,glycan array binding signal (z-score),[16],1.32
same,glycan array binding signal (z-score),[17],-0.034
same,glycan array binding signal (z-score),[18],5.05
same,glycan array binding signal (z-score),[19],10.7
same,glycan array binding signal (z-score),[20],3.12
same,glycan array binding signal (z-score),[21],-0.552
same,glycan array binding signal (z-score),[22],0.508
same,glycan array binding signal (z-score),[23],-0.086
same,glycan array binding signal (z-score),[24],0.094
same,glycan array binding signal (z-score),[25],-0.474
same,glycan array binding signal (z-score),[26],1.62
same,glycan array binding signal (z-score),[27],1.03
same,glycan array binding signal (z-score),[28],1.07
same,glycan array binding signal (z-score),[29],1.64
same,glycan array binding signal (z-score),[30],-0.18
